Structures are written as SMILES. About 220 (0.56%) of roughly 39,000 compounds showed activity. Some of the results follow.
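Also: static incubation at 37 °C against the wild-type strain, values averaged over two biological replicates.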

This assay relates to Escherichia coli K-12 BW25113. The assay is described as follows: relative growth (OD600 normalised to plate interquartile mean) (fraction); higher = less growth inhibition, active = 0.2 or less. The note with it: 50 µM; LB; incubation time: overnight (16-24 h).
As to `Cn1nc(C#N)c2c1CN(S(C)(=O)=O)CCC2`, the relative growth is inactive: 1.05.

As for `COC(=O)c1ccc([C@H]2C=C(C(=O)N3CCOCCOCCOCCOCC3)O[C@@H](OCCCCO)C2)cc1`, the relative growth is inactive: 1.

As for `CC(C)C#Cc1ccc2c(c1)O[C@H](CN(C)C(=O)c1cnccn1)[C@H](C)CN([C@H](C)CO)S2(=O)=O`, the relative growth is inactive: 0.974.

With `COc1ccc(NC(=O)O[C@H]2[C@@H]3OC(=O)[C@@H](Cc4ccc5ccccc5c4)C/C=C/C[C@H](Cc4ccc5ccccc5c4)C(=O)O[C@H]3[C@@H](OC)O[C@@H]2CO)cc1`, the relative growth is inactive: 1.01.

Turning to `O=C(C[C@H]1CC[C@@H]2[C@H](COC[C@H](O)CN2C(=O)c2cnccn2)O1)NCc1ccc(Oc2ccccc2)cc1`, the relative growth was inactive: 1.

Take `C[C@H](CO)N1C[C@H](C)[C@H](CN(C)Cc2ccc(C(F)(F)F)cc2)Oc2ccc(NC(=O)C3CCCCC3)cc2CC1=O`: the relative growth is inactive: 0.938.

On to `C[C@@H]1CN([C@@H](C)CO)S(=O)(=O)c2ccc(C#Cc3ccc(F)cc3)cc2O[C@H]1CN(C)C(=O)c1ccccn1`, for which the relative growth was inactive: 1.03.

With `CC(C)c1noc(CNC(=O)CN)n1`, the relative growth is inactive: 0.982.

With `C[C@@H]1CCCCO[C@@H](CN(C)Cc2ccc(C(=O)Nc3ccccc3N)cc2)[C@@H](C)CN([C@H](C)CO)C(=O)c2cc(NS(=O)(=O)c3cccs3)ccc2O1`, the relative growth is inactive: 1.

Consider `Cc1nn(C)cc1NC(=O)C[C@@H]1CC[C@@H]2[C@@H](COc3ccc(NC(=O)C4CCOCC4)cc3C(=O)N2C)O1`, for which the relative growth is inactive: 0.992.

Consider `Cc1ccc(/C=c2\sc3ncnn3c2=O)o1`, for which the relative growth is inactive: 1.02.

For the compound `CC1CCC2C(C)(C)C3CC12CCC3(C)O` (configuration not stated), the relative growth was inactive: 1.05.

On to `C[C@H]1CN([C@@H](C)CO)C(=O)Cc2cc(NC(=O)Cc3cn(C)c4ccccc34)ccc2O[C@H]1CN(C)C(=O)Nc1ccc(C(F)(F)F)cc1`, for which the relative growth is inactive: 0.992.

On to `C[C@H](CO)N1C[C@H](C)[C@H](CN(C)Cc2ccc(Cl)c(Cl)c2)Oc2c(NC(=O)c3ccc(-c4nccs4)cc3)cccc2C1=O`, for which the relative growth was inactive: 1.

For the compound `COc1ccc(-c2coc3c(OC)c(OC)cc(O)c3c2=O)cc1`, the relative growth is inactive: 0.991.

With `Cc1ccc(S(=O)(=O)N(C)C[C@@H]2Oc3cc(C#Cc4ccncc4)ccc3S(=O)(=O)N([C@@H](C)CO)C[C@@H]2C)cc1`, the relative growth is inactive: 1.03.

For `C[C@@H]1CN([C@H](C)CO)C(=O)c2cc(C#CC3(O)CCCC3)cnc2O[C@H]1CN(C)C(=O)Cc1cccnc1`, the relative growth was inactive: 0.98.

For `C[C@@H]1CN([C@H](C)CO)C(=O)c2cc(NC(=O)c3ccccc3)ccc2O[C@@H](C)CCCCO[C@@H]1CN(C)C(=O)C1CCCCC1`, the relative growth is inactive: 1.01.

On to `CC(=O)NCC(=O)N1CCC2(CC1)C(=O)N(CC1CC1)CCN2C`, for which the relative growth is inactive: 1.

Turning to `C[C@@H]1CN([C@H](C)CO)C(=O)Cc2cc(NS(=O)(=O)c3ccc(F)cc3)ccc2O[C@H]1CN(C)S(=O)(=O)c1ccccc1`, the relative growth was inactive: 1.02.

As to `C=CCC[C@H](Cc1ccc(F)cc1)C(=O)O[C@@H](CNC(=O)[C@@H](CC=C)CC(=O)N[C@@H](CO)Cc1ccccc1)c1ccccc1`, the relative growth is inactive: 1.01.

Regarding `Cc1ccc(S(=O)(=O)N2C[C@@H](O)COC[C@H]3O[C@H](CC(=O)NCc4cccc(Cl)c4)CC[C@@H]32)cc1`, the relative growth was inactive: 0.989.

Take `Cc1noc(C)c1S(=O)(=O)Nc1ccc2c(c1)C(=O)N([C@H](C)CO)C[C@H](C)[C@H](CN(C)C)OCCCC[C@H](C)O2`: the relative growth is inactive: 0.845.

For the compound `C[C@@H]1CN([C@@H](C)CO)C(=O)c2cc(NC(=O)Cc3ccccc3)ccc2O[C@@H](C)CCCCO[C@@H]1CN(C)C(=O)Nc1cccc2ccccc12`, the relative growth was inactive: 1.04.

`COc1ccc(CN(C)C[C@@H]2Oc3ccc(NS(=O)(=O)c4cn(C)cn4)cc3CC(=O)N([C@H](C)CO)C[C@H]2C)cc1`: the relative growth is inactive: 1.01.

With `C[C@H](CO)N1C[C@H](C)[C@H](CN(C)Cc2ccc(C(=O)O)cc2)OCCCC[C@H](C)Oc2ccc(NS(=O)(=O)c3cccs3)cc2C1=O`, the relative growth was inactive: 1.01.

Turning to `O=C(Nc1nn[nH]n1)C1CCCCC1`, the relative growth is inactive: 0.994.

On to `C[C@H]1CN([C@@H](C)CO)C(=O)c2ccccc2-c2ccccc2CO[C@H]1CN(C)Cc1ccc(Cl)c(Cl)c1`, for which the relative growth was inactive: 0.999.

Take `CN1CCN(C(=O)C[C@@H]2CC[C@@H]3[C@@H](COc4ccc(NC(=O)c5cscn5)cc4C(=O)N3C)O2)CC1`: the relative growth was inactive: 0.991.

With `Cc1ccccc1N1C(=O)c2cc(S(N)(=O)=O)c(Cl)cc2NC1C` (configuration not stated), the relative growth was inactive: 1.12.

Regarding `C[C@H]1CN([C@@H](C)CO)C(=O)c2cc(C3=CCCC3)cnc2O[C@@H]1CN(C)C(=O)Nc1ccc(C(F)(F)F)cc1`, the relative growth is inactive: 0.999.

On to `C[C@@H]1CN([C@H](C)CO)C(=O)Cc2cc(NC(=O)Cn3cnnn3)ccc2O[C@H]1CN(C)Cc1ccncc1`, for which the relative growth was inactive: 0.971.

`C[C@H]1CN([C@@H](C)CO)C(=O)c2cccc(NC(=O)c3cnccn3)c2O[C@H]1CN(C)S(C)(=O)=O`: the relative growth is inactive: 0.951.

Regarding `Cc1ccc(S(=O)(=O)Nc2ccc3c(c2)C(=O)N([C@@H](C)CO)C[C@@H](C)[C@@H](CN(C)S(C)(=O)=O)OCCCC[C@@H](C)O3)cc1`, the relative growth is inactive: 1.01.

Turning to `CC(C)NC(=O)N(C)C[C@@H]1Oc2ccc(NS(=O)(=O)c3ccc(Cl)cc3)cc2C(=O)N([C@H](C)CO)C[C@@H]1C`, the relative growth is inactive: 0.994.

Take `C[C@@H]1CN([C@H](C)CO)C(=O)Cc2cc(NC(=O)c3ccncc3)ccc2O[C@H]1CN(C)Cc1ccc(-c2ccccc2)cc1`: the relative growth was inactive: 1.04.

Take `C[C@H]1CCCCO[C@@H](CN(C)C(=O)CCC(F)(F)F)[C@@H](C)CN([C@@H](C)CO)C(=O)c2cc(NC(=O)c3ccccc3)ccc2O1`: the relative growth was inactive: 1.05.

For the compound `C[C@@H]1CCCCO[C@H](CN(C)Cc2ccc(C(=O)O)cc2)[C@@H](C)CN([C@H](C)CO)C(=O)c2cc(NC(=O)Nc3ccc(F)cc3)ccc2O1`, the relative growth is inactive: 1.02.

Turning to `O=C(O)CCN=C1NC(=O)CS1`, the relative growth is inactive: 0.99.

`C[C@@H]1CN([C@H](C)CO)C(=O)c2cc(NS(=O)(=O)c3ccc(Cl)cc3)ccc2O[C@@H](C)CCCCO[C@@H]1CN(C)CC1CCCCC1`: the relative growth was inactive: 1.02.

Take `CC(C)NC(=O)Nc1ccc2c(c1)CC(=O)N([C@@H](C)CO)C[C@@H](C)[C@@H](CN(C)C(=O)Nc1ccc3c(c1)OCO3)O2`: the relative growth is inactive: 0.993.

As to `C[C@@H]1CN([C@@H](C)CO)C(=O)c2cc(NC(=O)Cn3cnnn3)ccc2O[C@@H]1CN(C)Cc1ccc(-c2ccccc2)cc1`, the relative growth was inactive: 0.993.

Regarding `C[C@@H]1CN([C@@H](C)CO)C(=O)c2cccc(NC(=O)C3CC3)c2O[C@@H]1CN(C)C(=O)NC1CCCCC1`, the relative growth was inactive: 1.03.

Turning to `C[C@@H]1CN([C@H](C)CO)C(=O)c2cccc(NC(=O)c3ccc(-c4nccs4)cc3)c2O[C@H]1CN(C)Cc1ccc(C(=O)Nc2ccccc2N)cc1`, the relative growth was inactive: 1.01.

`NC[C@@H](O)C1CCCCC1`: the relative growth is inactive: 0.967.

As to `Cn1cnc(S(=O)(=O)N[C@@H]2C=C[C@H](CC(=O)N3CCN(c4ccccc4)CC3)O[C@@H]2CO)c1`, the relative growth was inactive: 1.02.

Take `C[C@H]1CN([C@@H](C)CO)C(=O)c2cc(-c3ccncc3)cnc2O[C@H]1CN(C)S(=O)(=O)c1ccc(F)cc1`: the relative growth was inactive: 1.01.

As to `C[C@@H]1CN([C@H](C)CO)C(=O)Cc2cc(NS(=O)(=O)c3ccc(F)cc3)ccc2O[C@@H]1CN(C)Cc1ccc(-c2ccccc2)cc1`, the relative growth was inactive: 1.07.

For the compound `CC(C)NC(=O)N(C)C[C@@H]1Oc2ccc(NS(=O)(=O)c3ccc(F)cc3)cc2CC(=O)N([C@H](C)CO)C[C@H]1C`, the relative growth is inactive: 0.996.

For `CO[C@H]1CN(C)C(=O)c2cc(NS(=O)(=O)CC(F)(F)F)ccc2OC[C@@H](C)N(Cc2cccnc2)C[C@@H]1C`, the relative growth is inactive: 1.02.

For the compound `Cc1cc(-n2c(=O)[nH]c(=O)n(C)c2=O)ccc1Oc1ccc(SC(F)(F)F)cc1`, the relative growth is inactive: 1.01.

As to `Cc1cccc(S(=O)(=O)N2C[C@H](O)COC[C@H]3O[C@H](CC(=O)N4CCN(C)CC4)CC[C@@H]32)c1`, the relative growth is inactive: 1.

As for `COc1ccc(CN(C)C[C@@H]2OCCCC[C@@H](C)Oc3ccc(NC(=O)NC(C)C)cc3C(=O)N([C@@H](C)CO)C[C@@H]2C)cc1`, the relative growth was inactive: 0.983.

Turning to `COc1cccc(S(=O)(=O)N(C)C[C@@H]2Oc3ncc(Br)cc3C(=O)N([C@H](C)CO)C[C@@H]2C)c1`, the relative growth is inactive: 1.

For the compound `Cc1ccc(S[C@]2(C(=O)NC3CC3)CC(=O)N(Cc3ccccc3C(F)(F)F)[C@@H]2c2ccc(CO)cc2I)cc1`, the relative growth was inactive: 0.998.

Turning to `COc1ccc(N)cn1`, the relative growth was inactive: 1.02.

On to `NCC1CCN(S(=O)(=O)C2CC2)CC1`, for which the relative growth was inactive: 0.996.

As to `C[C@@H]1CN([C@H](C)CO)C(=O)c2cc(NC(=O)CCC(F)(F)F)ccc2O[C@@H](C)CCCCO[C@@H]1CN(C)Cc1ccc(C(F)(F)F)cc1`, the relative growth was inactive: 0.914.

With `C[C@H](CO)N1C[C@H](C)[C@@H](CN(C)S(=O)(=O)c2ccccc2)OCCCC[C@H](C)Oc2ccc(NC(=O)Nc3ccc(C(F)(F)F)cc3)cc2C1=O`, the relative growth was inactive: 0.994.

For the compound `C[C@@H]1CN([C@H](C)CO)C(=O)c2cc(C#Cc3ccccn3)cnc2O[C@@H]1CN(C)C(=O)c1cnccn1`, the relative growth was inactive: 1.01.

For the compound `Cn1cnc(CCNC(=O)C[C@H]2CC[C@@H]3[C@H](COC[C@@H](O)CN3C(=O)Nc3ccc(C(F)(F)F)cc3)O2)c1`, the relative growth is inactive: 0.952.

`COc1ccc(NC(=O)N(C)C[C@@H]2OCCCC[C@H](C)Oc3ccc(NS(=O)(=O)c4ccc(F)cc4)cc3C(=O)N([C@@H](C)CO)C[C@@H]2C)cc1`: the relative growth was inactive: 1.01.
